Results taken from ChEMBL document CHEMBL4888484, “Replenishing the malaria drug discovery pipeline: Screening and hit evaluation of the MMV Hit Generation Library 1 (HGL1) against asexual blood stage Plasmodium falciparum ,using a nano luciferase reporter read-out” (2022).
Hit rate of the full screen: of about 150,000 compounds, about 540 (0.36%) showed an effect of 50% or more. This is one part of the list.

System: Plasmodium falciparum
Assay: Primary screen in NF54 nanoGlo assay, in single point, at 2uM, 72h; a lower Z score goes with more inhibition
Assay type: functional, Erythrocyte
Conditions: timepoint 72 hour

Compound	% Inhibition [%]	Z score
COc1cc(OC)c(C(=O)N2C[C@H]3C[C@H](O)[C@@H](O)C[C@H]3C2)cc1OC	2	-0.25
Cc1cnc(C(F)(F)F)c(C(=O)O)c1	-7	1.31
COc1ccc(C2C3C(=O)N(c4cccc5ccccc45)C(=O)C3ON2c2ccccc2)c(OC)c1OC (stereo not drawn)	0	0.05
CC(C)c1ccc(C(=O)OCC(=O)Nc2cccc(S(=O)(=O)NC3=NCCC3)c2)cc1	-9	1.16
CN1CCC(CCNC(=O)N2CC(Oc3ccccc3)C2)CC1	-13	2.06
C=CCn1ncc(CN(C)CC2(C)COC2)c1C	-15	3.01
CN1CCN(Cc2cc(O)c3cc(F)ccc3n2)[C@@H](c2ccccc2)C1	-6	1.05
COc1cc(OC)c(Nc2c(C(=O)N3CCCCCC3)cnc3nc(C)ccc23)cc1Cl	-6	0.95
C[C@@H]1Oc2ccc(N)cc2CN(CC2CCCCC2)C1=O	-18	1.73
CC(C)Oc1ccc(C(=O)N(CN2CCCC2=O)c2cccc(Cl)c2)cc1	-5	0.82
CN(C)CCN(Cc1ccsc1)Cc1ncc[nH]1	-16	2.33
CC(C)(C)OC(=O)Nc1sccc1Cl	-5	0.7
Cc1cc(=O)nc2n(CCCN3C(=O)NC(C)(C)C3=O)ccn12	3	-0.68
c1ccc(OCCN2CCC([C@H]3c4[nH]cnc4CCN3Cc3cccnc3)CC2)cc1	-7	1.07
CC1CCN(S(=O)(=O)c2ccc3c(ccc(=O)n3CC(=O)NCc3ccc4c(c3)OCO4)c2)CC1	-3	0.41
Cc1cncc(-c2nc(CC(N)=O)nn2CC(C)(C)O)c1	-13	1.26
COc1ccc(-c2nnc(C)o2)cc1NC(=O)Cc1cc(C)no1	-9	1.81
CCn1ncnc1[C@H](C)NC(=O)Cc1c(C)nc2ccccn12	-13	1.8
Cc1ccc(-c2cn[nH]c2[C@H]2CCCN(C(=O)c3cnn4ccn(C)c34)C2)cc1	-17	2.2
COCc1nc(CN2CCOc3c(Cl)cccc32)cs1	-1	0.12
C(#CCN1CCCCC1)COC(c1ccccc1)c1ccccc1	1	-0.17

Compound	% Inhibition [%]	Z score
CO[C@H]1C[C@@H](CO)N(C(=O)Nc2cnc(C(F)(F)F)cc2C)C1	-10	1.99
CN(Cc1nnnn1CC(F)(F)F)C1(CO)CC1	8	-0.83
C[C@@H](CN1CCOCC1)NC(=O)C1C(=O)CC(C)(C)CC1=O	-10	1.58
O=C(Nc1cccnn1)NC1CCOC(c2ccccc2)C1 (stereo not drawn)	-5	0.72
CC(C)(CNC(=O)c1ccc(Cl)cc1Br)C(N)=O	-10	1.29
COCCN1C[C@@H](CNC(=O)Nc2cccc3nc(C)ccc23)CC1=O	-8	1.22
Cc1ccc(-c2cc3c(N4CCC(C(=O)NCCCc5ccccc5)CC4)nccn3n2)cc1C	-3	0.26
O=C1CCN(c2ncnc3ccccc23)CCN1	-11	1.56
Cc1cc(C(=O)N(Cc2cccnc2)c2ccc(Cl)cc2)ncn1	-3	0.41
O=C(N[C@@H]1CN(C2CCC2)C[C@H]1CO)c1ccccc1	-10	1.69
O=c1c2ccccc2nnn1CCOc1ccc(F)cc1	-13	1.5
COc1cc2cc(c1)C(=O)NCCCC(=O)N[C@H]1CN(C(=O)c3cnn(Cc4ccccc4)c3)CC[C@@H]1OCc1cccc(c1)O2	-10	1.84
CN(C)C1CCC2C(C1)OCCN2C(=O)c1cc(C(C)(C)C)on1 (stereo not drawn)	-9	1.71
Nc1cccnc1-c1cccc(C(=O)N2CCC(F)(F)CC2)c1	6	-1.15
CC(C)(C)C1(NC(=O)CCC(F)(F)F)CC1	5	-0.6
COc1cc(NC(=O)Cn2c(N3CCN(c4ccccc4)CC3)nc(C)cc2=O)cc(OC)c1	-15	1.32
Cc1cc(NC(=O)CCN2CCc3c(ncn3C)C2)no1	-1	0.1
CN(CC1(O)CCOCC1)C(=O)NC1CC2CC1C1CCCC21 (stereo not drawn)	-4	0.55
Cc1noc(C)c1C(=O)N[C@@H](CC(C)C)c1nnc2ccccn12	-7	0.89
CC[n+]1c(C)sc2cc(-c3ccccc3)sc21	32	-4.14
COc1cccc(CNC(=O)CC[C@H]2CCCN(c3nc4ccccc4o3)C2)c1	6	-0.77

Compound	% Inhibition [%]	Z score
CCOCCS(=O)(=O)N1C[C@H](COC)OC(C)(C)C1	-12	1.55
CC(=O)Nc1ccc(Br)c(C(=O)N(C)Cc2ccc3c(c2)OCO3)n1	-5	0.87
O=C1NC2(CCCCCCC2)C(=O)N1CCOc1ccccc1F	-7	1.07
CS(=O)(=O)CCN1CCC(NC(=O)c2c[nH]nc2-c2ccccc2)CC1	-3	0.52
CCc1onc(C)c1NC(=O)NCc1ccccc1CC(F)(F)F	-4	0.73
CCOc1ccc(C(=O)C(CCC(CN2CCCCC2)C(=O)c2ccc(OCC)cc2)CN2CCCCC2)cc1 (stereo not drawn)	-5	0.69
Cn1c(=O)[nH]c(=O)c2nc(/C=C(\O)c3ccc(C(F)(F)F)cc3)c(O)nc21	9	-1.16
CCOC(=O)N1CCC(Nc2nc3c(-c4ccccc4)nnn3c3ccccc23)CC1	-11	1.56
CCN(c1ccccc1)c1ccc(CNCc2nc(-c3cccnc3)n[nH]2)cc1	-4	0.63
Cc1nn(CCc2nc3c4cn[nH]c4ncn3n2)c(C)c1Cl	4	-0.61
C[C@@H](CCCC(C)(C)O)CCNCCC1(O)CCCC1	-11	1.6
Cc1cccc(C2CC(C(=O)NCc3cccc(F)c3)CN(Cc3ccccc3F)C2)c1 (stereo not drawn)	-7	0.67
CN1CCC2(CCN(C(=O)c3ccc4c(c3)OCCO4)CC2)C1=O	-23	3.03
Cc1ccc(-c2nn(-c3ccccc3)cc2C(=O)N2CC[C@H](CN)C2)o1	-1	0.21
CCC(=O)Nc1ccc2c(c1)c(=O)n(-c1ccccc1)n2CC(=O)NC1CCCC1	-16	2.03
Cc1[nH]c(=O)c(C#N)c(C)c1CCC(=O)NC(C)CN1CCCC(C)C1 (stereo not drawn)	6	-0.54
O=C(c1cc(C2CCCCC2)n[nH]1)N1CC2(CCC2)[C@@H]1C1CCOCC1	-18	1.54
O=C(CCC1CCOCC1)Nc1ccc(C(=O)O)cc1	-5	0.54
CCC(=O)Nc1cc(-c2cc3ccccc3o2)nn1CCO	-1	0.16
COc1ccc(-c2cnc3ncnn3c2N2CCCN(S(=O)(=O)c3cccc(F)c3)CC2)cc1OC	-4	0.81
COc1ccccc1NC[C@H](O)Cn1c2c(c3cc(C)ccc31)CCCC2	10	-1.35

Compound	% Inhibition [%]	Z score
O=C(NCC(=O)N1Cc2ccccc2C1)NC1(CF)CCC1	-11	2.13
CCn1c(CC2CCN(Cc3ccc4nonc4c3)CC2)nn(C)c1=O	-5	0.92
CCCC[C@@H](C(=O)Nc1cc(C)on1)N1CCC(C(N)=O)CC1	-14	1.31
CC(C)(C)C1CNC(=O)C1C(=O)Nc1ccc(CCO)cc1 (stereo not drawn)	3	-0.48
Cc1ccc2c(=O)n([C@@H](C)Cc3cccnc3)cnc2c1	-8	1.12
O=C(Nc1nncs1)c1ccccc1NS(=O)(=O)c1ccc(Br)cc1	14	-1.69
c1ccc2[nH]c(-c3cn(CCCN4CCOCC4)nn3)nc2c1	-4	0.56
CN(Cc1ccc(-n2cccn2)cc1)C(=O)c1cn(Cc2ccccc2Cl)nn1	-9	1.38
CCCC[C@H](CC)C(=O)Nc1ccc(F)cc1F	-4	0.49
O=C1C[C@H](NC2CCN(c3ncccn3)CC2)C(=O)N1c1ccc(Cl)cc1	-9	0.98
O=C1CC[C@@H](C(=O)OCc2csc(-c3ccccc3)n2)N1	-17	1.69
Cc1ccc(-n2nc(C3CC3)nc2C2CC2)c(C)c1	-13	1.66
Cc1cccc(-n2nnnc2C2(NCCc3ccccc3)CCCC2)c1	-8	1.14
Cc1nc(O)nc(O)c1S(=O)(=O)N1CCC(C(=O)NC2CCCCCCC2)CC1	-10	1.28
CN(C)[C@@H](CNC(=O)Cc1ccsc1)c1ccsc1	-32	3.24
CC(C(=O)N1C[C@@H](F)C[C@H]1CO)n1cccn1 (stereo partly drawn)	-9	1.44
Cc1ccccc1C(C)(C)Cn1nnnc1N1CCC(C(N)=O)CC1	-8	0.92
O=C(NCc1ccc(Cn2cccn2)cc1)N1CC[C@@]12CCOC2	-12	1.35
COC1(C)CC(N(C)C(=O)C2CCc3[nH]nnc3C2)C1(C)C (stereo not drawn)	-4	0.38
CCC(NC(=O)C(C)=Cc1ccco1)C(O)C(C)C (stereo not drawn)	-11	2.13
COc1cc2c(cc1OC)C(C(C)NC(=O)c1ccccc1C)N(Cc1ccc(C)cc1)CC2 (stereo not drawn)	12	-1.12
